Data on seven cell lines can be found in the supplement of paper PMC4967469.

IC50 is the fitted dose that halves viability relative to control wells, and lower means more sensitive; fits outside the tested doses are given as limits. For AUC the same curve is integrated over the 256-fold range of doses and scaled to a fraction; it is 1 without any effect and falls as sensitivity rises. For some assays here: The top dose, if marked as inferred, is not printed in the source and was worked back from the curve model. For some assays here: An entry number marks a drug with two screens in the source, which often give different values.

Test in all cases: Viability of human cancer cell lines after 72 h of drug (GDSC screen)
Compound in one test: C#Cc1cccc(Nc2ncnc3cc(OC)c(OCCCCCCC(=O)NO)cc23)c1 [CUDC-101]
Conditions: top dose 5.12 µM; top dose inferred. As to the method: (§1)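 Human cancer cell lines in 384-well plates, medium with 10% serum, drug for 72 h over a 256-fold dose range (nine 2-fold or five 4-fold steps up to the top dose). Adherent lines were fixed and stained with the nucleic acid dye Syto60, suspension lines read with resazurin; signal relative to control wells, capped at 0 and 100%. One two-parameter sigmoid per drug and line, fitted in a mixed model over all curves with the slope shared within a line.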

Compound in a further test: CC(C)(C)c1cc(NC(=O)Nc2ccc(-c3cn4c(n3)sc3cc(OCCN5CCOCC5)ccc34)cc2)no1 [AC220]
Conditions: top dose 1.024 µM; top dose inferred. The procedure:
as §1

Compound in the next test: COc1cc(F)c(F)c(Nc2ccc(I)cc2F)c1NS(=O)(=O)C1(C[C@H](O)CO)CC1 [RDEA119]
The following applies: top dose 5 µM, top dose inferred. As to the method:
as §1

Compound in another test: Fc1cc(-c2ccnc(Nc3ccc(-n4cnc(N5CCOCC5)n4)cc3)n2)cc(N2CCOCC2)c1 [JNK-9L]
Conditions: top dose 5.12 µM; top dose inferred. The procedure:
as §1

Compound in another test: NCC(=O)Nc1ccc(-n2nc(C(F)(F)F)cc2-c2ccc3c(ccc4ccccc43)c2)cc1 [OSU-03012]
Conditions: top dose 16 µM; top dose inferred. The procedure: as §1

Compound in another test: O=c1[nH]cc(F)c(=O)[nH]1 [5-Fluorouracil]
Conditions: top dose 32 µM; top dose inferred. As to the method:
as §1

Compound in the next test: OC[C@H](Cc1ccccc1)Nc1nc(Oc2ccc3c(c2)CCC3)nc2c1ncn2Cc1ccc(-c2ccccc2)cc1 [QS11]
Conditions: top dose 10.24 µM. As to the method:
as §1

Consider RH-1 (rhabdomyosarcoma, adherent), for which the AUC in the test with CUDC-101 stood at 0.314; with AC220 it was 0.989; in the test with RDEA119 (screen: GDSC drug entry 1014), 0.979; with RDEA119 (screen: GDSC drug entry 1526), 0.982; in the test with JNK-9L, 0.492; in the test with OSU-03012, 0.591. For the same cell line, the AUC with 5-Fluorouracil was found to be 0.371; in the test with QS11, 0.826. In addition, the IC50 was 107 nM in the test with CUDC-101; greater than 1020 nM with AC220; greater than 5000 nM with RDEA119 (screen: GDSC drug entry 1014); greater than 5000 nM with RDEA119 (screen: GDSC drug entry 1526); 305 nM in the test with JNK-9L; 1700 nM with OSU-03012. The IC50 amounted to 942 nM in the test with 5-Fluorouracil and 4880 nM with QS11.
For RH-41 (rhabdomyosarcoma, adherent), the AUC with CUDC-101 worked out at 0.847; in the test with AC220, 0.992; with RDEA119 (screen: GDSC drug entry 1014) it was 0.992; in the test with RDEA119 (screen: GDSC drug entry 1526), 0.958; in the test with JNK-9L it was 0.626; with OSU-03012 it was 0.808. Besides, the AUC was 0.907 with 5-Fluorouracil and 0.946 with QS11. Further, the IC50 in the test with CUDC-101 was 2890 nM; with AC220, greater than 1020 nM; with RDEA119 (screen: GDSC drug entry 1014) it was greater than 5000 nM; in the test with RDEA119 (screen: GDSC drug entry 1526) it was greater than 5000 nM; with JNK-9L it was 667 nM; with OSU-03012, 6660 nM. For the same cell line, the IC50 was 31300 nM with 5-Fluorouracil and greater than 10200 nM with QS11.
Turning to RKN (ovary, adherent), the AUC in the test with CUDC-101 stood at 0.694; with AC220, 0.983; in the test with RDEA119 (screen: GDSC drug entry 1014), 0.772; with RDEA119 (screen: GDSC drug entry 1526), 0.414; with JNK-9L, 0.65; in the test with OSU-03012, 0.851. For the same cell line, the AUC in the test with 5-Fluorouracil worked out at 0.96; in the test with QS11, 0.896. Besides, the IC50 with CUDC-101 was 1160 nM; in the test with AC220 it was greater than 1020 nM; with RDEA119 (screen: GDSC drug entry 1014), 2040 nM; in the test with RDEA119 (screen: GDSC drug entry 1526) it was 179 nM; with JNK-9L, 857 nM; with OSU-03012 it was 13300 nM. In addition, the IC50 in the test with 5-Fluorouracil is greater than 32000 nM; with QS11, greater than 10200 nM.
Regarding RKO (large intestine, adherent), the AUC with CUDC-101 turned out to be 0.522; with AC220 it was 0.974; with RDEA119 (screen: GDSC drug entry 1014), 0.729; in the test with RDEA119 (screen: GDSC drug entry 1526) it was 0.749; with JNK-9L, 0.312; with OSU-03012 it was 0.46. In addition, the AUC with 5-Fluorouracil was 0.592; with QS11, 0.777. Further, the IC50 is 365 nM with CUDC-101; greater than 1020 nM in the test with AC220; 1320 nM with RDEA119 (screen: GDSC drug entry 1014); 1520 nM in the test with RDEA119 (screen: GDSC drug entry 1526); 99.7 nM in the test with JNK-9L; 786 nM with OSU-03012. For the same cell line, the values for the IC50 with 5-Fluorouracil and with QS11 were 3510 nM and 3810 nM, respectively.
Take RL (B-cell lymphoma, suspension): the AUC with CUDC-101 turned out to be 0.318; in the test with AC220, 0.99; with RDEA119 (screen: GDSC drug entry 1014), 0.99; with RDEA119 (screen: GDSC drug entry 1526), 0.976; with JNK-9L, 0.78; with OSU-03012, 0.828. Also, the AUC with 5-Fluorouracil amounted to 0.831; with QS11, 0.979. Also, the IC50 with CUDC-101 is 104 nM; with AC220, greater than 1020 nM; in the test with RDEA119 (screen: GDSC drug entry 1014), greater than 5000 nM; in the test with RDEA119 (screen: GDSC drug entry 1526), greater than 5000 nM; with JNK-9L it was 1930 nM; with OSU-03012, 8760 nM. In addition, the IC50 with 5-Fluorouracil is 18000 nM; with QS11, greater than 10200 nM.
On to RMG-I (ovary, adherent), for which the AUC with CUDC-101 was determined as 0.388; with AC220, 0.98; with RDEA119 (screen: GDSC drug entry 1526), 0.608; in the test with JNK-9L it was 0.666; with OSU-03012, 0.745; in the test with 5-Fluorouracil it was 0.918. Further, in the test with QS11, the AUC was determined as 0.941. In addition, the IC50 with CUDC-101 was 149 nM; with AC220, greater than 1020 nM; in the test with RDEA119 (screen: GDSC drug entry 1526) it was 652 nM; with JNK-9L, 1010 nM; with OSU-03012, 5770 nM; with 5-Fluorouracil, greater than 32000 nM. Further, in the test with QS11, the IC50 is greater than 10200 nM.
Take RO82-W-1 (thyroid, adherent): the AUC was found to be 0.576 with CUDC-101; 0.982 with AC220; 0.925 with RDEA119 (screen: GDSC drug entry 1014); 0.802 with RDEA119 (screen: GDSC drug entry 1526); 0.821 with JNK-9L; 0.872 with OSU-03012. Besides, the results for the AUC with 5-Fluorouracil and with QS11 were 0.967 and 0.952, respectively. Moreover, the IC50 with CUDC-101 is 546 nM; with AC220 it was greater than 1020 nM; with RDEA119 (screen: GDSC drug entry 1014), greater than 5000 nM; with RDEA119 (screen: GDSC drug entry 1526), 3300 nM; in the test with JNK-9L it was 4090 nM; in the test with OSU-03012, greater than 16000 nM. For the same cell line, the IC50 in the test with 5-Fluorouracil was greater than 32000 nM; with QS11 it was greater than 10200 nM.

A word on the IC50: it is the midpoint of a concentration-inhibition curve.
